The campaign covered roughly 3,200 compounds. About 75 (2%) showed an effect of 50% or more. The list shows a part of the results.
Test system: T1, S. aureus MSSA476
T1 construct: MSSA476
Design: species or system S. aureus MSSA476 (TSB) or V. cholerae SAD30 (LB); 384-well bacterial growth screen at 25 uM, OD600 relative to DMSO control
Conditions: relative growth, OD600, TSB; 25 µM; inhibitor

Structure (SMILES) | % of control remaining
Cc1nn(-c2ccccc2)c(C)c1CNC(=O)CCl [6-I08, 2-chloro-N-[(3,5-dimethyl-1-phenyl-1H-pyrazol-4-yl)methyl]acetamide] | 104.146%
CC(Cl)C(=O)N1CCN(C2=NS(=O)(=O)c3ccccc32)CC1 (stereo not drawn) [7-K11, 3-[4-(2-chloropropanoyl)piperazin-1-yl]-1lambda6,2-benzothiazole-1,1-dione] | 68.1319%
N#Cc1ccccc1NC(=O)CCl [5-P04, 2-chloro-N-(2-cyanophenyl)acetamide] | 97.2678%
CCCn1c(C)cc(C=C(C#N)C(=O)N2CCC2)c1C [8-L08, 2-(azetidine-1-carbonyl)-3-(2,5-dimethyl-1-propyl-1H-pyrrol-3-yl)prop-2-enenitrile] | 96.9295%
C=CC(=O)NCc1ccc(C(=O)N2CCC[C@H]2C(=O)NC)cc1 [3-L06, (2S)-N-methyl-1-{4-[(prop-2-enamido)methyl]benzoyl}pyrrolidine-2-carboxamide] | 87.0701%
C=CC(=O)Nc1ccc(C(=O)NCC2CSCCS2)cc1 (stereo not drawn) [2-K21, N-[(1,4-dithian-2-yl)methyl]-4-(prop-2-enamido)benzamide] | 131.245%
Cc1nc([C@H]2CCCN2C(=O)C(C)Cl)cs1 (stereo partly drawn) [7-O04, 2-chloro-1-[(2R)-2-(2-methyl-1,3-thiazol-4-yl)pyrrolidin-1-yl]propan-1-one] | 97.6452%
C=CC(=O)NC1CCCN(Cc2ccccc2)C1=O (stereo not drawn) [2-L13, N-(1-benzyl-2-oxopiperidin-3-yl)prop-2-enamide] | 107.572%
C=CC(=O)Nc1cnoc1C(C)C [3-L10, N-[5-(propan-2-yl)-1,2-oxazol-4-yl]prop-2-enamide] | 129.56%
Cc1cc(C)c(-c2cc(NC(=O)CCl)n(-c3ccccc3)n2)cc1C [6-A10, 2-chloro-N-[1-phenyl-3-(2,4,5-trimethylphenyl)-1H-pyrazol-5-yl]acetamide] | 60.439%
C=CC(=O)N1CCC(c2nnc3n2CCCC3)CC1 [2-J21, 1-(4-{5H,6H,7H,8H-[1,2,4]triazolo[4,3-a]pyridin-3-yl}piperidin-1-yl)prop-2-en-1-one] | 121.497%
CC(NC(=O)CCl)c1ccc2c(c1)CCCC2 (stereo not drawn) [4-B03, 2-chloro-N-[1-(5,6,7,8-tetrahydronaphthalen-2-yl)ethyl]acetamide] | 76.6079%
CC1=C(c2ccco2)CN(C(=O)CCl)CC1 [5-H05, 2-chloro-1-[5-(furan-2-yl)-4-methyl-1,2,3,6-tetrahydropyridin-1-yl]ethan-1-one] | 84.8816%
C=CC(=O)N1CCCCC1C1CCCO1 (stereo not drawn) [2-L21, 1-[2-(oxolan-2-yl)piperidin-1-yl]prop-2-en-1-one] | 124.282%
CC(Cl)C(=O)N1CCN(C(=O)C(F)(F)F)C2(CCCCC2)C1 (stereo not drawn) [7-K06, 2-chloro-1-[1-(2,2,2-trifluoroacetyl)-1,4-diazaspiro[5.5]undecan-4-yl]propan-1-one] | 91.9937%
CCc1nocc1CN(C)C(=O)C(C)Cl (stereo not drawn) [7-M06, 2-chloro-N-[(3-ethyl-1,2-oxazol-4-yl)methyl]-N-methylpropanamide] | 99.2151%
CCc1ccc(NC(=O)C(C)Cl)cc1 (stereo not drawn) [4-L15, 2-chloro-N-(4-ethylphenyl)propanamide] | 105.193%
C=CC(=O)N1CCN(Cc2cc(C)no2)CC1 [1-B18, 1-{4-[(3-methyl-1,2-oxazol-5-yl)methyl]piperazin-1-yl}prop-2-en-1-one] | 126.945%
Cc1c(Cl)cccc1N1C(=O)C=CC1=O [10-B17, 1-(3-chloro-2-methylphenyl)-2,5-dihydro-1H-pyrrole-2,5-dione] | 100.625%
COc1ccc(C=C(C#N)C(=O)Nc2ccc(C)cc2)cc1 [9-A19, 2-cyano-3-(4-methoxyphenyl)-N-(4-methylphenyl)prop-2-enamide] | 94.0824%
CC(Cl)C(=O)NC(C)c1ccc(C(F)(F)F)nc1Cl (stereo not drawn) [7-G09, 2-chloro-N-{1-[2-chloro-6-(trifluoromethyl)pyridin-3-yl]ethyl}propanamide] | 111.774%
CC(NC(=O)c1ccccc1NC(=O)CCl)c1ccccc1 (stereo not drawn) [4-B07, 2-(2-chloroacetamido)-N-(1-phenylethyl)benzamide] | 109.385%
COc1ccccc1NC(=O)c1ccc(NC(=O)CCl)cc1 [4-O17, 4-(2-chloroacetamido)-N-(2-methoxyphenyl)benzamide] | 92.2344%

Structure (SMILES) | % of control remaining
CCn1cc(S(=O)(=O)N2CCSSCC2)cn1 [10-N19, 5-[(1-ethyl-1H-pyrazol-4-yl)sulfonyl]-1,2,5-dithiazepane] | 97.1875%
C=CC(=O)N(Cc1cnn(C(C)C)c1)c1ccc2nc(C)oc2c1 [2-C13, N-(2-methyl-1,3-benzoxazol-6-yl)-N-{[1-(propan-2-yl)-1H-pyrazol-4-yl]methyl}prop-2-enamide] | 151.088%
Cc1cccc(NC(=O)C(C#N)=Cc2ccc(F)c(F)c2)c1 [8-I16, 2-cyano-3-(3,4-difluorophenyl)-N-(3-methylphenyl)prop-2-enamide] | 75.6846%
C=CC(=O)Nc1ccc(C(F)C(F)(F)F)cc1 (stereo not drawn) [1-O20, N-[4-(1,2,2,2-tetrafluoroethyl)phenyl]prop-2-enamide] | 90.7253%
C=CC(=O)NCC(C)Cn1nccc1C (stereo not drawn) [1-H14, N-[2-methyl-3-(5-methyl-1H-pyrazol-1-yl)propyl]prop-2-enamide] | 116.396%
COc1ccc(NC(=O)C(C)Cl)c([N+](=O)[O-])c1 (stereo not drawn) [6-B08, 2-chloro-N-(4-methoxy-2-nitrophenyl)propanamide] | 102.098%
Cc1ccc(C)c(C=C(C#N)C(=O)NC(C)C)c1 [9-O22, 2-cyano-3-(2,5-dimethylphenyl)-N-(propan-2-yl)prop-2-enamide] | 108.764%
C=CC(=O)NCCN1CCOCC1C (stereo not drawn) [2-I05, N-[2-(3-methylmorpholin-4-yl)ethyl]prop-2-enamide] | 108.268%
CC(Cl)C(=O)N1CCn2c(nn(CC(=O)N(C)C)c2=O)C1 (stereo not drawn) [7-K17, 2-[7-(2-chloropropanoyl)-3-oxo-2H,3H,5H,6H,7H,8H-[1,2,4]triazolo[4,3-a]pyrazin-2-yl]-N,N-dimethylacetamide] | 89.4819%
Cn1cc(C(=O)CCl)nn1 [10-M19, 2-chloro-1-(1-methyl-1H-1,2,3-triazol-4-yl)ethan-1-one] | 87.5%
Cc1nc2n(n1)CCN(C(=O)C(C)Cl)C2 (stereo not drawn) [5-A04, 2-chloro-1-{2-methyl-5H,6H,7H,8H-[1,2,4]triazolo[1,5-a]pyrazin-7-yl}propan-1-one] | 114.026%
O=C(CCl)c1c[nH]c2ccncc12 [10-K05, 2-chloro-1-{1H-pyrrolo[3,2-c]pyridin-3-yl}ethan-1-one] | 112.813%
O=C1C=CC(=O)N1c1cc([N+](=O)[O-])ccc1Cl [10-H15, 1-(2-chloro-5-nitrophenyl)-2,5-dihydro-1H-pyrrole-2,5-dione] | 119.687%
COc1ccc([N+](=O)[O-])cc1NC(=O)CCl [4-P17, 2-chloro-N-(2-methoxy-5-nitrophenyl)acetamide] | 109.767%
C=CC(=O)NC[C@@H]1C[C@H]1C1CCCCC1 [1-O19, N-{[(1R,2S)-2-cyclohexylcyclopropyl]methyl}prop-2-enamide] | 104.791%
C=CC(=O)N1CCC(C(=O)NCc2ccc(-c3n[nH]c(C)n3)cc2)CC1 [3-M21, N-{[4-(5-methyl-1H-1,2,4-triazol-3-yl)phenyl]methyl}-1-(prop-2-enoyl)piperidine-4-carboxamide] | 122.246%
C=CC(=O)Nc1cccc(C(O)C(F)(F)F)c1 (stereo not drawn) [1-M16, N-[3-(2,2,2-trifluoro-1-hydroxyethyl)phenyl]prop-2-enamide] | 129.407%
O=C1C=CC(=O)N1c1ccc(F)cc1F [10-F15, 1-(2,4-difluorophenyl)-2,5-dihydro-1H-pyrrole-2,5-dione] | 135.938%
COc1cccc(NC(=O)CN(C)C(=O)CCl)c1 [5-A03, 2-chloro-N-{[(3-methoxyphenyl)carbamoyl]methyl}-N-methylacetamide] | 86.7031%
C=CC(=O)NC[C@@H]1C[C@H](F)CN1Cc1ccnn1C [2-E05, N-{[(2S,4S)-4-fluoro-1-[(1-methyl-1H-pyrazol-5-yl)methyl]pyrrolidin-2-yl]methyl}prop-2-enamide] | 90.1654%
N#CC1=C(N2CCOCC2)SC(c2ccc([N+](=O)[O-])cc2)NC1=O (stereo not drawn) [9-D08, 6-(morpholin-4-yl)-2-(4-nitrophenyl)-4-oxo-3,4-dihydro-2H-1,3-thiazine-5-carbonitrile] | 103.071%
CC(Cl)C(=O)N1CCCC(CNC(=O)Nc2ccc(F)cc2)C1 (stereo not drawn) [6-J22, 3-{[1-(2-chloropropanoyl)piperidin-3-yl]methyl}-1-(4-fluorophenyl)urea] | 93.2195%

From PMC11995724, “Antibiotic target discovery by integrated phenotypic and activity-based profiling of electrophilic fragments” (Cell chemical biology, 2025)
